According to PubChem BioAssay AID686978 (National Center for Advancing Translational Sciences (NCATS), 2013):
The campaign covered roughly 420,000 compounds. About 64,000 (15%) were called active. The shares of active, inactive and inconclusive entries below differ from those in the screen. Calls follow the shape of the dose curve; as a rule, active = well fitted inhibition curve with a large enough effect; inconclusive = small, poorly fitted or top-dose-only effect; inactive = flat fitted curve, though single readings scatter. Potencies of inconclusive entries are left out as doubtful fits.

Assay: qHTS for Inhibitors of human tyrosyl-DNA phosphodiesterase 1 (TDP1): qHTS in cells in absence of CPT; also: nearly all actives have a fitted effect of over 55% in size
Settings: DT40 Tdp1-/- hTDP1 cells, no CPT, ATP luminescence, 48 h; activity change, negative = growth inhibition: at 46.2 µM (top of the series) unless noted
Procedure, shortened: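 Compound effects on proliferation are scored in DT40 Tdp1-/-;hTDP1 cells in the absence of CPT. ATP levels (CellTiter-Glo luminescence) are recorded after a ≥48 hr, 37 °C incubation.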
% is scaled to controls: 0 for no effect and ±100 for the full control effect; potency is read from the fitted curve at half-maximal effect; tags tell the direction and shape of the fitted curve.

SMILES	Potency	activity change, negative = growth inhibition
CCOC(=O)c1ccc(Nc2nnc(C)c3ccccc23)cc1	active: 16.4 µM	
O=C(c1cc(-c2ccccc2)nn1-c1ccccc1)N1CCN(S(=O)(=O)c2c(F)cccc2F)CC1	inconclusive [inhibitor, single point]	
CCCc1ccc(S(=O)(=O)N/N=C(/C)c2ccc3c(c2)OCO3)cc1	inactive	
Clc1cccc(-c2nc3ccc(Cl)cn3c2Cc2ccsc2)c1	inconclusive [inhibitor, single point]	
CCC1CCCCN1C(=O)CSc1nc2c(c(=O)n1C)SC(C)C2 (centres undefined)	inconclusive [inhibitor, single point]	
O=C(Cn1c(SCC(=O)Nc2ccc(F)cc2)nc2ccccc21)NCc1ccc(F)cc1	inconclusive [inhibitor, single point]	
O=C(COC(=O)C1CC(=O)N(Cc2ccco2)C1)Nc1ccccc1[N+](=O)[O-] (centres undefined)	inconclusive [inhibitor, partial curve, poor fit]	
CCCCc1c(Cc2cccc(F)c2)ncn1CCc1ccccc1OC	active: 13 µM	
O=C(NCc1ccccn1)c1ccccc1OCc1ccccc1Cl	inconclusive [inhibitor, single point]	
O=C(OC1CCCC1)c1ccc(Cl)cc1Cl	inconclusive [inhibitor, single point]	
CCCC(=O)NCC1(N(C)C)CCCCC1		inconclusive: -11.8% [inhibitor]
O=C(NC1CCCc2c1cnn2-c1cc(F)cc(F)c1)c1ccccn1 (centres undefined)	inactive	
CC(=O)Oc1ccc(C(=O)[C@H]2[C@H]3C(=O)N(c4ccc(C)cc4)C(=O)[C@H]3[C@@H]3C=CC=NN32)cc1	inconclusive [inhibitor, single point]	
Cc1cc(C(=O)N/N=C/c2ccc(OC(=O)c3ccccc3Br)cc2)n[nH]1	inconclusive [inhibitor, partial curve, poor fit]	
COc1cccc(CNC(=O)[C@H](C)NC(=O)C2CCN(S(=O)(=O)c3ccccc3)CC2)c1	inconclusive [inhibitor, single point]	
CCCn1c(NC(=O)CCS(=O)(=O)c2ccc(C)cc2)nc2ccccc21	inconclusive [inhibitor, single point]	
COc1ccc(/C=C2\N=C(c3ccccc3Cl)NC2=O)cc1	active: 0.82 µM	
CCOC(=O)CN(C(=O)CSc1nnc(-c2ccc(OC)c(OC)c2)o1)c1ccccc1	inconclusive [inhibitor, single point]	
Cc1ccc(C(=O)Nc2ccncc2)c(C)c1	inconclusive [inhibitor, partial curve]	
CN1CCN(NC(=O)c2cc(-c3ccccn3)nc3ccccc23)CC1	inactive	
COc1ccccc1CC(=O)NNC(=O)CN(C)S(=O)(=O)c1ccc(Cl)cc1	inactive	
COc1ccc(-n2nc(C(=O)NCC(=O)N3CCCC3)c3ccccc3c2=O)cc1Cl	inconclusive [inhibitor, partial curve]	
CCCCSc1cnn(-c2ccccc2)c(=O)c1SCCCC	inconclusive [inhibitor, single point]	

SMILES	Potency	activity change, negative = growth inhibition
COc1ccccc1NC(=O)C(=O)NCC(c1ccc2c(c1)OCO2)N1CCN(C)CC1 (centres undefined)	inconclusive [inhibitor, single point]	
CCOc1cc2sc(N3CCC(C(=O)Nc4ccc(C)cc4C)CC3)nc2cc1Br	active: 20.6 µM	
CCOC(CNC(=O)c1cccn2c(=O)c3c(C)c(C)sc3nc12)OCC	active: 18.4 µM	
COCC(=O)Nc1ccc2c(c1)[C@@H]1C[C@H](CC(=O)NCc3cccc(F)c3)O[C@@H](CO)[C@@H]1O2	inactive	
COc1ccc(-c2nc3scc(CCNS(=O)(=O)c4ccc(C)cc4)n3n2)cc1	inconclusive [inhibitor, single point]	
Cc1ccc(S(=O)(=O)CCSc2nc(C)cc(C(F)(F)F)c2C#N)cc1	inconclusive [inhibitor, single point]	
O=C(Nc1cc(C(=O)N2CCN(c3ccccc3O)CC2)ccc1Cl)c1cccs1	inconclusive [inhibitor, single point]	
Cc1cccc(N2CCN(C(=O)c3ccc4ccccc4c3)CC2C)c1 (centres undefined)	inconclusive [inhibitor, single point]	
C[C@@H]1CN([C@H](C)CO)C(=O)CCCn2cc(nn2)CO[C@H]1CN(C)S(=O)(=O)c1ccc(F)cc1	inactive	
COc1ccccc1NC(=O)CN1CCN(C2c3ccccc3-c3ccccc32)CC1	active: 20.6 µM	
Cc1cccc(N2CCN(Cc3ccoc3)CC2)c1C	inconclusive [inhibitor, single point]	
CCOC(=O)[C@@H]1[C@H]2COc3ccc(Br)cc3[C@@H]2N2C(=O)N(c3ccc(C(F)(F)F)cc3)C(=O)[C@@]12C	active: 23.1 µM	
CCC(=O)c1ccc(OCC(=O)Nc2ccccc2N2CCCCC2)cc1	active: 2.91 µM	
COc1ccccc1CNC(=O)CN1C(=O)NC2(CCCC2)C1=O	inactive	
COc1ccc(NC(=O)COC(=O)CCCc2c[nH]c3ccccc23)cc1OC	inactive	
O=C(C(=O)N1CCC(c2ccccc2)CC1)c1cccc([N+](=O)[O-])c1	inconclusive [inhibitor, single point]	
O=C(CN1CCc2cc3c(cc2C1)OCCCO3)Nc1ccccc1	active: 25.9 µM	
O=C(CNC(=O)c1ccc(Cl)cc1Cl)NCC(=O)Nc1ccccc1N1CCOCC1	inconclusive [inhibitor, single point]	
Cc1ccc(S(=O)(=O)NC(=O)NC2CCCC2)cc1	inactive	
Cc1ccc(C2C(=O)N(C3CCCC3)CC(=O)N2C2CCCCC2)cc1 (centres undefined)	inconclusive [inhibitor, single point]	
Oc1ccc(-c2onc3ccc(Cl)cc23)cc1	inconclusive [inhibitor, single point]	
O=C(c1cc2cc(Cl)ccc2[nH]1)N1CCN(C(=O)c2ccco2)CC1	inconclusive [inhibitor, single point]	
COCCCNC(=O)/C(C#N)=C/c1c(N2CCN(c3ccccc3)CC2)nc2ccccn2c1=O	active: 14.6 µM	

SMILES	Potency	activity change, negative = growth inhibition
Cc1cc(C)c(S(=O)(=O)NCc2cccnc2)c(C)c1	inactive	
COc1ccc(S(=O)(=O)N(CC(=O)Nc2ccccc2Br)Cc2ccccc2)cc1	inconclusive [inhibitor, single point]	
CCSc1nnc2c(n1)[nH]c1c(C)cccc12	active: 12.6 µM	
COc1ccc(-n2nc(C(=O)NCC(=O)NCCCN3CCOCC3)c3ccccc3c2=O)cc1Cl	inconclusive [inhibitor, partial curve]	
Cc1cc(C)n2nc(C(=O)N/N=C/c3ccc(O)cc3)nc2n1	inactive	
CCCCNC(=O)C[C@@H]1C[C@@]2(C(=O)OC)CCCCC=C2N(Cc2ccc3c(c2)OCO3)C1=O	inconclusive [inhibitor, single point]	
COCCOC(=O)C1=C(C)N(c2ccccc2)C(=O)NC1c1cccc([N+](=O)[O-])c1 (centres undefined)	inconclusive [inhibitor, single point]	
COc1cc([N+](=O)[O-])cc(/C=N/NC(=O)c2cc(C)nc3ccccc23)c1O	inconclusive [inhibitor, single point]	
CC(Nc1ccc(N2CCOCC2)cc1)C(=O)N1c2ccccc2CC1C (centres undefined)	inconclusive [inhibitor, partial curve, poor fit]	
CC(C)c1ccc(/C=C/C(=O)Nc2ccc(CN3CCOCC3)cc2)cc1	active: 13 µM	
CCOC(=O)Cc1csc(NC(=O)C(NC(=O)C2CCCCC2)C(C)C)n1 (centres undefined)	inconclusive [inhibitor, single point]	
COCc1cc(CN2CCCC(C(=O)Nc3ccc(-c4ccco4)cc3)C2)ccc1OC (centres undefined)	inconclusive [inhibitor, single point]	
CC(C(=O)Nc1ccc(C#N)cc1)N(C)Cc1cccs1 (centres undefined)	inconclusive [inhibitor, single point]	
Cn1c(N/N=C\c2cccc(O)c2)cc(=O)n(C)c1=O	inconclusive [inhibitor, single point]	
O=S(=O)(c1ccc(Cl)cc1)N1CCN(Cc2ccc(O)c3ncccc23)CC1	active: 5.8 µM	
CCOC(=O)Cc1cn2c(=O)cc(CSCC(=O)Nc3ccc(C)c(C)c3)nc2s1	inconclusive [inhibitor, single point]	
O=C(Cn1nnc(-c2cccc(C(F)(F)F)c2)n1)N1CCCCCC1	inconclusive [inhibitor, single point]	
Cc1cc(NC(=O)CS(=O)c2cn(Cc3cccc(Cl)c3)c3ccccc23)no1 (centres undefined)	active: 16.4 µM	
Cc1onc(-c2ccccc2Cl)c1C(=O)Nc1ccc(-n2nncc2-c2ccco2)cc1	inconclusive [inhibitor, single point]	
O=[N+]([O-])c1ccc(N2CCCCC2)nc1N1CCCCC1	active: 20.6 µM	
CN(C)c1ccc(C(CNC(=O)c2ccccc2)N2CCc3ccccc32)cc1 (centres undefined)	active: 14.6 µM	
Fc1cccc(Cc2c(-c3ccco3)nc3c(Cl)cc(C(F)(F)F)cn23)c1	inconclusive [inhibitor, single point]	
CCc1ccc(CN(Cc2ccco2)c2cnc(S(C)(=O)=O)nc2C(=O)Nc2cccc(C)c2)cc1	active: 20.6 µM	
